{
  "source": "PubChem BioAssay AID504332",
  "about": "(National Center for Advancing Translational Sciences (NCATS), 2011)",
  "note": "Among all 350,000 compounds or so, about 31,000 (8.9%) were called active. The inconclusive results got no clear call from the source; some entries with a clear call stand among them for comparison. Calls come from the whole dose curve; as a rule, active = well fitted inhibition curve with a large enough effect; inconclusive = small, poorly fitted or top-dose-only effect; inactive = no such curve, though single readings can be large or run the other way. Potencies beside an inconclusive call are fits to weak or partial responses and may not hold up. % is set by controls: 0 for no effect and ±100 for the full control effect; potency is the fitted concentration of half-maximal effect; tags give direction and shape of the fitted curve.",
  "data": [
    {"biological_target": "Histone-lysine N-methyltransferase EHMT2 (Homo sapiens) (UniProt Q96KQ7)", "sequence (Q96KQ7 whole entry, looked up)": "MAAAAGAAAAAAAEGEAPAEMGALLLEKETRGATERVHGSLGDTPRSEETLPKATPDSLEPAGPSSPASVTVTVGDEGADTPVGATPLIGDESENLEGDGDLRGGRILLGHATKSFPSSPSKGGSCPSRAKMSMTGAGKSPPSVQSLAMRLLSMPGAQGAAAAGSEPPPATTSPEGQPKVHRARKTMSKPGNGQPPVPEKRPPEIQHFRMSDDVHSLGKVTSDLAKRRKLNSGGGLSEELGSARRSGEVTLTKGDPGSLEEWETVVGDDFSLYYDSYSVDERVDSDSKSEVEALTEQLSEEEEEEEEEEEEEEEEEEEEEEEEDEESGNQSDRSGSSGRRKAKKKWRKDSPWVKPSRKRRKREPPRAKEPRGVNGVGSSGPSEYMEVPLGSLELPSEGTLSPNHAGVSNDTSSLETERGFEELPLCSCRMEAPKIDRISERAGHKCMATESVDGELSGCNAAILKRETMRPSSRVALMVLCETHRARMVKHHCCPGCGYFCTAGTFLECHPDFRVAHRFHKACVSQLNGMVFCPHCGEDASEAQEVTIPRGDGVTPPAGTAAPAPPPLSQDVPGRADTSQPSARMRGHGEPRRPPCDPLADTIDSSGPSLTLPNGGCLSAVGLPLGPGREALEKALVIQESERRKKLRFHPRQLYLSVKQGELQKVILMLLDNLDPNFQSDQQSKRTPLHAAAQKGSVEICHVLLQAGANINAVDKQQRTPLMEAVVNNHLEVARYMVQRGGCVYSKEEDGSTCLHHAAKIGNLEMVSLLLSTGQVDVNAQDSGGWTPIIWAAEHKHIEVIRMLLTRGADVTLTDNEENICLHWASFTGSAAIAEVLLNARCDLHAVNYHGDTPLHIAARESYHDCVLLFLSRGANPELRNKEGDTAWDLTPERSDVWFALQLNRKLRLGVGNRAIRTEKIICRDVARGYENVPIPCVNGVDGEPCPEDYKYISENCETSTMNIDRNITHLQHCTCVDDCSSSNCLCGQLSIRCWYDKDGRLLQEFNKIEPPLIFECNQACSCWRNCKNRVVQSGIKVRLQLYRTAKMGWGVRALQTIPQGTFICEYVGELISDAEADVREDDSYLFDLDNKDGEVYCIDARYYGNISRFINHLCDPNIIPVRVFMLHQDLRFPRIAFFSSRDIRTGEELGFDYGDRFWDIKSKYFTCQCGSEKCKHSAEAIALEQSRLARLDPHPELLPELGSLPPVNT", "test": "qHTS Assay for Inhibitors of Histone Lysine Methyltransferase G9a; note: nearly all actives have a fitted effect of over 75% in size", "details": "G9a H3K9 monomethylation, AlphaScreen, 2 h; activity, negative = inhibition: at 59 µM (top of the series) unless noted", "in_short": "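Signal arises when biotinylated H3K9 peptide, once monomethylated, bridges streptavidin donor and antibody-captured acceptor beads. Enzyme at 20 nM was preincubated 15 min with test compounds; peptide 500 nM and SAM 20 uM then reacted for 2 h.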", "values": [
      {"smiles": "OCC1(Cc2ccccc2F)CCCN(Cc2c(F)ccc(F)c2F)C1", "note": "(centres undefined)", "activity, negative = inhibition": "inactive: 18.7% [at 0.501 µM]"},
      {"smiles": "Cn1c(=O)[nH]c(=O)c2c1nc(N(CCO)Cc1ccccc1)n2CCCc1ccccc1", "Potency": "inconclusive: 79.4 µM [inhibitor, single point]"},
      {"smiles": "Cc1ccc(OCc2cc(C(=O)NCc3cn4ccccc4n3)no2)cc1C", "Potency": "inconclusive: 50.1 µM [inhibitor, partial curve, poor fit]"},
      {"smiles": "O=C(NCc1ccco1)C(c1ccncc1)N(C(=O)Cn1nnc2ccccc21)c1ccccc1F", "note": "(centres undefined)", "Potency": "inconclusive: 39.8 µM [inhibitor, single point]"},
      {"smiles": "CCCCNC(=O)C1Cc2cc(S(=O)(=O)N3CCCC3)ccc2N1C(C)=O", "note": "(centres undefined)", "Potency": "inactive"},
      {"smiles": "Nc1cnn(Cc2ccccc2F)c1", "Potency": "inconclusive: 44.7 µM [inhibitor, partial curve, poor fit]"},
      {"smiles": "O=C(Cc1ccc(F)cc1)NCCS(=O)(=O)N1CCN(c2cccc(Cl)c2)CC1", "activity, negative = inhibition": "inactive: 20.9% [at 0.501 µM]"},
      {"smiles": "CCCCN(C(=O)Cn1nnc2ccccc21)C(C(=O)NCc1ccco1)c1ccncc1", "note": "(centres undefined)", "Potency": "inconclusive: 39.8 µM [inhibitor, partial curve, poor fit]"},
      {"smiles": "COc1ccccc1CNC(=O)c1ccc(-c2nc(CN3CCc4ccccc43)c(C)o2)cc1", "Potency": "inconclusive: 14.1 µM [inhibitor, partial curve]"},
      {"smiles": "COc1ccccc1N=CC=C1OC(C)(C)C(C)(C)O1", "Potency": "inconclusive: 89.1 µM [inhibitor, single point]"},
      {"smiles": "CCOC(=O)c1c(-c2ccccc2)oc2ccc(O)cc12", "activity, negative = inhibition": "inactive: -22.2% [at 0.501 µM]"},
      {"smiles": "COc1cccc(N=C2C(=O)N3CCCc4cccc2c43)c1", "Potency": "inconclusive: 14.1 µM [inhibitor, partial curve, poor fit]"},
      {"smiles": "COc1ccc(CNc2ccc3cn[nH]c3c2)c(OC)c1OC", "Potency": "active: 8.91 µM"},
      {"smiles": "Cc1ccc(CNC(=O)c2ccc(-n3cccc3)cc2)cc1", "Potency": "inconclusive: 50.1 µM [inhibitor, partial curve, poor fit]"},
      {"smiles": "O=C(N1CCNCC1)N1CCOCC1", "Potency": "inconclusive: 89.1 µM [inhibitor, single point]"},
      {"smiles": "CCCn1c(N)c(N(CCOC)C(=O)c2ccc(N3CCCC3=O)cc2)c(=O)[nH]c1=O", "Potency": "active: 56.2 µM"},
      {"smiles": "O=S(=O)(c1ccc(OCc2ccc(Br)cc2)cc1)N1CCOCC1", "Potency": "inconclusive: 2 µM [inhibitor, partial curve, poor fit]"},
      {"smiles": "CN1C(=O)c2cccc3c(S(=O)(=O)Nc4ccccn4)ccc1c23", "Potency": "inconclusive: 35.5 µM [inhibitor, single point]"},
      {"smiles": "COCCNC(=O)CN(CCc1ccccc1)S(=O)(=O)c1ccc(OC)cc1", "Potency": "inconclusive: 89.1 µM [inhibitor, single point]"},
      {"smiles": "CCCCC1=CC2=CC(=O)C(C)(OC(=O)CC)C(=O)C2=CN1c1ccccc1", "note": "(centres undefined)", "activity, negative = inhibition": "inactive: -0.988% [at 12.7 µM]"},
      {"smiles": "Cc1ccc2c(C(=O)CN3CCCCC3)c(C)[nH]c2c1", "Potency": "inconclusive: 4.47 µM [inhibitor, full curve]"},
      {"smiles": "CCCCN1C(=O)CCC(C(=O)O)C1c1ccc([N+](=O)[O-])cc1", "note": "(centres undefined)", "Potency": "inconclusive: 0.251 µM [inhibitor, partial curve, poor fit]"},
      {"smiles": "CCOC(=O)C1CCN(S(=O)(=O)c2cccc(-c3csc(C)n3)c2)CC1", "activity, negative = inhibition": "inconclusive: -62.1% [inhibitor]"},
      {"smiles": "CCOC(=O)C1=C(COC(=O)c2nc(Cl)ccc2Cl)NC(=O)NC1C", "note": "(centres undefined)", "Potency": "inconclusive: 50.1 µM [inhibitor, partial curve]"},
      {"smiles": "COc1ccc(-c2nc(CS(=O)CC(=O)NCc3ccccc3OC)c(C)o2)cc1", "note": "(centres undefined)", "Potency": "inconclusive: 44.7 µM [inhibitor, partial curve, poor fit]"},
      {"smiles": "COCCCNC(=O)c1ccc2c(c1)ncn2-c1ccccc1OC", "Potency": "inconclusive: 15.8 µM [inhibitor, partial curve, poor fit]"},
      {"smiles": "CCN(CC)c1c([N+](=O)[O-])c(=O)sc2ccccc12", "Potency": "inconclusive: 1.78 µM [inhibitor, full curve, poor fit]"},
      {"smiles": "CCCC(=O)Nc1ccc2nc(SCC(=O)Nc3nccs3)sc2c1", "Potency": "inconclusive: 10 µM [inhibitor, partial curve, poor fit]"},
      {"smiles": "C=C(C)C1CC=C(C)CC1", "note": "(centres undefined)", "Potency": "inactive"},
      {"smiles": "CC(=O)c1cccc(NC(=O)c2cc(-c3ccco3)on2)c1", "Potency": "inconclusive: 89.1 µM [inhibitor, single point]"},
      {"smiles": "CN(C)CCNc1oc(COc2ccc(Cl)cc2)nc1C#N", "Potency": "inconclusive: 0.631 µM [inhibitor, single point]"},
      {"smiles": "COc1ccc2[nH]cc(CCNc3ncnc4ccc(-c5cccc(C#N)c5)cc34)c2c1", "activity, negative = inhibition": "inactive: -0.299% [at 0.501 µM]"},
      {"smiles": "O=C(NNC(=O)c1ccco1)c1csc(N2CCOCC2)n1", "Potency": "active: 7.08 µM"},
      {"smiles": "CC(=O)c1ccc(Nc2ccc([N+](=O)[O-])c3nonc23)cc1", "Potency": "inconclusive: 89.1 µM [inhibitor, single point]"},
      {"smiles": "Cc1n[nH]c(=O)c2c(NC(=O)CSc3c(Cl)cccc3Cl)oc(C)c12", "Potency": "active: 12.6 µM"},
      {"smiles": "CCCC(=O)NC(c1ccc(OCC)cc1)c1ccc(OC)c(OC)c1", "note": "(centres undefined)", "Potency": "inconclusive: 1.12 µM [inhibitor, full curve, poor fit]"},
      {"smiles": "CCc1cccc(NC(=O)Cn2c(=O)n(-c3cccc(Cl)c3)c(=O)c3c2c2cc(C)ccc2n3C)c1", "Potency": "inactive"},
      {"smiles": "COC(=O)[C@H](CCSC)NC(=O)c1cc2c(cn1)[nH]c1ccccc12", "Potency": "active: 1.78 µM"},
      {"smiles": "O=C(NC1CC2CCCC(C1)N2C(=O)Nc1ccc(F)cc1)c1ccccc1", "note": "(centres undefined)", "Potency": "inconclusive: 25.1 µM [inhibitor, partial curve, poor fit]"},
      {"smiles": "COc1ccc(OC)c(CNC(=O)c2cnc3c(C)cccn3c2=O)c1", "Potency": "inactive"},
      {"smiles": "Cn1c(SCC(=O)Nc2ccc3c(c2)OCCO3)nnc1C(F)(F)F", "Potency": "inconclusive: 25.1 µM [inhibitor, single point]"},
      {"smiles": "O=C(/C=C/c1ccc([N+](=O)[O-])cc1)Nc1ncc([N+](=O)[O-])s1", "Potency": "active: 50.1 µM"},
      {"smiles": "Cc1ccc(-c2nnc(N3CCN(C(=O)Cn4c(=O)n(C)c5ccccc54)CC3)c3ccccc23)cc1", "Potency": "inactive"},
      {"smiles": "COc1ccc(-c2nnc(NC(=O)c3ccc([N+](=O)[O-])o3)o2)c(OC)c1", "Potency": "active: 22.4 µM"},
      {"smiles": "Cc1ccc(Cl)cc1N1CCN(C(=O)C2CCCN(S(=O)(=O)c3cnc[nH]3)C2)CC1", "note": "(centres undefined)", "Potency": "inconclusive: 50.1 µM [inhibitor, partial curve, poor fit]"},
      {"smiles": "Cc1cc(C)c(S(=O)(=O)N(CC(=O)O)CC(=O)O)c(C)c1", "Potency": "active: 22.4 µM"},
      {"smiles": "CC(C)OP(=O)(OC(C)C)C(Nc1ccccc1)c1ccccc1C(F)(F)F", "note": "(centres undefined)", "Potency": "inactive"},
      {"smiles": "CC(C)CC(=O)N1CCN(Cc2ccccc2[N+](=O)[O-])CC1", "Potency": "active: 14.1 µM"},
      {"smiles": "Cc1ccccc1C(=O)Nc1cccc(C(=O)OCc2cc(=O)n3ccsc3n2)c1", "Potency": "inactive"},
      {"smiles": "CCCOc1ccc(N2C(=O)CC(NCCNc3ccc(S(=O)(=O)CC)cc3)C2=O)cc1", "note": "(centres undefined)", "activity, negative = inhibition": "inconclusive: -83.7% [inhibitor]"},
      {"smiles": "Cc1ccc2[nH]c(=O)c(CN(C(=O)c3cccc(Cl)c3)C(C)(C)C)cc2c1", "Potency": "inactive"},
      {"smiles": "COc1cccc(CC(=O)OCC(=O)NC2(C#N)CCCCC2)c1", "Potency": "inconclusive: 89.1 µM [inhibitor, single point]"},
      {"smiles": "CC(=O)c1cccc(Nc2cc(C)nc3ccc(C)cc23)c1", "Potency": "inconclusive: 56.2 µM [inhibitor, partial curve, poor fit]"},
      {"smiles": "Cc1ccc(C(=O)COC(=O)C(Cc2c[nH]c3ccccc23)NC(=O)c2ccc(C(C)(C)C)cc2)cc1", "note": "(centres undefined)", "Potency": "inconclusive: 12.6 µM [inhibitor, partial curve]"},
      {"smiles": "COc1ccc(/C=C(/NC(=O)c2ccccc2)C(=O)N2CCOCC2)cc1OC", "Potency": "inactive"},
      {"smiles": "Cc1cc(/C([O-])=C(/C(=S)Nc2ccc(F)cc2)[n+]2ccccc2)c(C)n1-c1ccc(F)cc1", "Potency": "inconclusive: 39.8 µM [inhibitor, single point]"},
      {"smiles": "COc1ccc(CNc2ccccc2SC)cc1OC", "Potency": "active: 10 µM"},
      {"smiles": "CSCC[C@H](Nc1ncnc2sc(C)c(C)c12)C(=O)O", "Potency": "inconclusive: 3.98 µM [inhibitor, full curve, poor fit]"},
      {"smiles": "O=C(NC(Cc1ccccc1)c1ccc2c(c1)OCCCO2)c1ccc(F)cc1", "note": "(centres undefined)", "Potency": "inconclusive: 39.8 µM [inhibitor, single point]"},
      {"smiles": "CCCCCN(C(=O)NC(=O)Nn1cnnc1)S(C)(=O)=O", "Potency": "inconclusive: 35.5 µM [inhibitor, single point]"},
      {"smiles": "CC(C)CC(=O)Nc1cc(-c2ccccc2F)nn1-c1ccccc1", "Potency": "inactive"},
      {"smiles": "CCCc1nnc(NC(=O)c2ccncc2)s1", "Potency": "inconclusive: 89.1 µM [inhibitor, single point]"},
      {"smiles": "Cn1cccc1/C=N/N1CCN(c2ccccc2)CC1", "Potency": "active: 31.6 µM"},
      {"smiles": "COC(=O)c1ccc(-n2c(C)cc(C(=O)CSc3cccc[n+]3[O-])c2C)cc1", "Potency": "active: 50.1 µM"},
      {"smiles": "Cc1ccc(S(=O)(=O)C2C(=O)N(C)C3(C)CC2c2ccccc2O3)cc1C", "note": "(centres undefined)", "Potency": "inactive"},
      {"smiles": "COc1ccc(N(CC(=O)N2CCN(Cc3ccc4c(c3)OCO4)CC2)S(=O)(=O)c2ccc(F)cc2)cc1", "Potency": "inconclusive: 89.1 µM [inhibitor, single point]"},
      {"smiles": "CCc1c(C)c2cc(Cl)c(O)c(CN(CC)CC)c2oc1=O", "activity, negative = inhibition": "inactive: 10.2% [at 12.7 µM]"},
      {"smiles": "Cc1nc2nc(SCC(=O)NCCCN3CCCCCC3)nn2c(C)c1Cc1ccccc1Cl", "Potency": "active: 79.4 µM"},
      {"smiles": "COc1ccc(N2CCN(C3CCCCC3NS(=O)(=O)c3ccccc3)CC2)cc1", "note": "(centres undefined)", "Potency": "active: 22.4 µM"}
    ]}
  ]
}
